# Laboratory results published in paper PMC9911399, “Two distinct binding modes provide the RNA-binding protein RbFox with extraordinary sequence specificity”.
# Where a chain is given by its changes, count along the chain named. This is one part of the list.
# T1: RBFOX1 RRM (Homo sapiens, UniProt Q9NWB1 109-208)
# T1 sequence: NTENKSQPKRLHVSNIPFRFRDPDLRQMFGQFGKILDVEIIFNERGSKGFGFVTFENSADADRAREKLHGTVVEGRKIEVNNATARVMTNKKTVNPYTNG
# B1: AGGCGCU (DNA:RNA)
# RNA: GGGAGACCGGAAUUCAGAUUGUCCAGGCGCUUUAAAUCCCGUCGUAGCCACCA
# DNA 1: CAATCTGAATTCCGGTCTCCC
# DNA 2: TGGTGGCTACGACGGGATT
# B2: GGGCUGA (DNA:RNA)
# RNA: B1 RNA with A25G, G29U, C30G, U31A
# DNA 1: CAATCTGAATTCCGGTCTCCC
# DNA 2: TGGTGGCTACGACGGGATT
# B3: UGCAAGU (DNA:RNA)
# RNA: B1 RNA with A25U, G27C, C28A, G29A, C30G
# DNA 1: CAATCTGAATTCCGGTCTCCC
# DNA 2: TGGTGGCTACGACGGGATT
# B4: UCAUGUG (DNA:RNA)
# RNA: B1 RNA with A25U, G26C, G27A, C28U, C30U, U31G
# DNA 1: CAATCTGAATTCCGGTCTCCC
# DNA 2: TGGTGGCTACGACGGGATT
# B5: UAGAGAA (DNA:RNA)
# RNA: B1 RNA with A25U, G26A, C28A, C30A, U31A
# DNA 1: CAATCTGAATTCCGGTCTCCC
# DNA 2: TGGTGGCTACGACGGGATT
# B6: AAAUCUG (DNA:RNA)
# RNA: B1 RNA with G26A, G27A, C28U, G29C, C30U, U31G
# DNA 1: CAATCTGAATTCCGGTCTCCC
# DNA 2: TGGTGGCTACGACGGGATT
# B7: CGUAUGG (DNA:RNA)
# RNA: B1 RNA with A25C, G27U, C28A, G29U, C30G, U31G
# DNA 1: CAATCTGAATTCCGGTCTCCC
# DNA 2: TGGTGGCTACGACGGGATT
# B8: AUCCAGC (DNA:RNA)
# RNA: B1 RNA with G26U, G27C, G29A, C30G, U31C
# DNA 1: CAATCTGAATTCCGGTCTCCC
# DNA 2: TGGTGGCTACGACGGGATT
# B9: CAUGUCU (DNA:RNA)
# RNA: B1 RNA with A25C, G26A, G27U, C28G, G29U
# DNA 1: CAATCTGAATTCCGGTCTCCC
# DNA 2: TGGTGGCTACGACGGGATT
# B10: CCUACGG (DNA:RNA)
# RNA: GGGAGACCGGAAUUCAGAUUGUCCCCUACGGUUAAAUCCCGUCGUAGCCACCA
# DNA 1: CAATCTGAATTCCGGTCTCCC
# DNA 2: TGGTGGCTACGACGGGATT
# B11: GUCCAUA (DNA:RNA)
# RNA: B1 RNA with A25G, G26U, G27C, G29A, C30U, U31A
# DNA 1: CAATCTGAATTCCGGTCTCCC
# DNA 2: TGGTGGCTACGACGGGATT
# B12: CCAAAGA (DNA:RNA)
# RNA: B10 RNA with U27A, C29A, G31A
# DNA 1: CAATCTGAATTCCGGTCTCCC
# DNA 2: TGGTGGCTACGACGGGATT
# B13: UGCCUAG (DNA:RNA)
# RNA: B1 RNA with A25U, G27C, G29U, C30A, U31G
# DNA 1: CAATCTGAATTCCGGTCTCCC
# DNA 2: TGGTGGCTACGACGGGATT
# B14: CCUAAAG (DNA:RNA)
# RNA: B10 RNA with C29A, G30A
# DNA 1: CAATCTGAATTCCGGTCTCCC
# DNA 2: TGGTGGCTACGACGGGATT
# B15: GCGUUUG (DNA:RNA)
# RNA: B10 RNA with C25G, U27G, A28U, C29U, G30U
# DNA 1: CAATCTGAATTCCGGTCTCCC
# DNA 2: TGGTGGCTACGACGGGATT
# B16: CACUUGA (DNA:RNA)
# RNA: B10 RNA with C26A, U27C, A28U, C29U, G31A
# DNA 1: CAATCTGAATTCCGGTCTCCC
# DNA 2: TGGTGGCTACGACGGGATT
# B17: AUCUCAU (DNA:RNA)
# RNA: B1 RNA with G26U, G27C, C28U, G29C, C30A
# DNA 1: CAATCTGAATTCCGGTCTCCC
# DNA 2: TGGTGGCTACGACGGGATT
# B18: CCGCACG (DNA:RNA)
# RNA: B1 RNA with A25C, G26C, G29A, U31G
# DNA 1: CAATCTGAATTCCGGTCTCCC
# DNA 2: TGGTGGCTACGACGGGATT
# B19: CGUGAAG (DNA:RNA)
# RNA: B10 RNA with C26G, A28G, C29A, G30A
# DNA 1: CAATCTGAATTCCGGTCTCCC
# DNA 2: TGGTGGCTACGACGGGATT
# B20: ACAUCUG (DNA:RNA)
# RNA: B10 RNA with C25A, U27A, A28U, G30U
# DNA 1: CAATCTGAATTCCGGTCTCCC
# DNA 2: TGGTGGCTACGACGGGATT
# Target: T1, RBFOX1 RRM
# Test: EMSA; HiTS-Eq, 1 nM pool, 10 min; buffer printed only for the single-RNA assays: 10 mM Tris pH 7.5, 150 mM NaCl, 3.4 mM EDTA, 0.001% NP-40, 30 C
# Conditions: tags: His6 N-terminal (pET28a); label: 5' 32P
# In short: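 Relative association constants, normalised to the cognate motif, were derived by comparing read counts of each RNA species with those of the control reaction. The RNA sequenced was the free fraction, separated by 8% native PAGE after a 10 min equilibration in 50 µL of 1 nM 5′-radiolabelled RNA (7 randomized nucleotides) with increasing concentrations of purified wild-type or mutant RbFox RRM.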
row,Binder,binding signal
1,B1,0.0107 KA relative to UGCAUGU
2,B2,0.0201 KA relative to UGCAUGU
3,B3,0.029 KA relative to UGCAUGU
4,B4,0.0157 KA relative to UGCAUGU
5,B5,0.00799 KA relative to UGCAUGU
6,B6,0.00625 KA relative to UGCAUGU
7,B7,0.0107 KA relative to UGCAUGU
8,B8,0.00329 KA relative to UGCAUGU
9,B9,0.00695 KA relative to UGCAUGU
10,B10,0.00849 KA relative to UGCAUGU
11,B11,0.00233 KA relative to UGCAUGU
12,B12,0.00264 KA relative to UGCAUGU
13,B13,0.0197 KA relative to UGCAUGU
14,B14,0.00242 KA relative to UGCAUGU
15,B15,0.0215 KA relative to UGCAUGU
16,B16,0.00733 KA relative to UGCAUGU
17,B17,0.00186 KA relative to UGCAUGU
18,B18,0.0481 KA relative to UGCAUGU
19,B19,0.00961 KA relative to UGCAUGU
20,B20,0.0079 KA relative to UGCAUGU
